# Screen size: about 200,000 compounds; about 4,500 (2.2%) were called active. Inconclusive results, whose numbers are uncertain, are shown with a selection of clear calls. Calls follow the shape of the dose curve; as a rule, active = well fitted inhibition curve with a large enough effect; inconclusive = small, poorly fitted or top-dose-only effect, or effect the other way; inactive = flat fitted curve, though single readings scatter. Potencies beside an inconclusive call are fits to weak or partial responses and may not hold up.
# Biological target: Cruzipain (Trypanosoma cruzi) (UniProt P25779)
# Chain of UniProt P25779 (P25779 whole entry, looked up): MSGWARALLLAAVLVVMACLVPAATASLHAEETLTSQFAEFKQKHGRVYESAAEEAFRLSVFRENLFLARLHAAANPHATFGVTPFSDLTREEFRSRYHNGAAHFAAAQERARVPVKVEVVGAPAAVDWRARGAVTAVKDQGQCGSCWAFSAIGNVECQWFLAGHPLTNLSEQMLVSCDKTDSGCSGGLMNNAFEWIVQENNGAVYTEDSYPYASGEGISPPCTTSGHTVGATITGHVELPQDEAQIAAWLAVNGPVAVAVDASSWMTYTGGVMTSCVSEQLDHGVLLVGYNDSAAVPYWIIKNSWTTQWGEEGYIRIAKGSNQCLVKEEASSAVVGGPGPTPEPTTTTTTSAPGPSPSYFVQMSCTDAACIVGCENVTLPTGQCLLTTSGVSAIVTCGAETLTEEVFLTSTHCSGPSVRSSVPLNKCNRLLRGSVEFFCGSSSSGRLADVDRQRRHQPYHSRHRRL
# Assay: qHTS Assay for Promiscuous and Specific Inhibitors of Cruzain (without detergent); also: nearly all actives have a fitted effect of over 40% in size;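 as to max response, negative = inhibition: plate controls were enzyme without inhibitor for no effect and buffer without enzyme for full effect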
# Details: purified cruzain, Z-FR-AMC fluorescence, no detergent
# Method in brief: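 Purified cruzain at 1.5 nM, pre-incubated 15 min with compound at room temperature in 100 mM sodium acetate pH 5.5, 5 mM DTT, 0.00005% Triton X-100. Reaction started with 2 uM Z-FR-AMC; AMC fluorescence increase over 60 s gives rate.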
# Potency is read from the fitted curve at half-maximal effect; tags tell the direction and shape of the fitted curve.
Compound,Potency,"max response, negative = inhibition"
Cc1ccc(N2C(N)=C(C#N)C3(C(=O)N(C)c4ccccc43)C3=C2CC(C)(C)CC3=O)cc1Cl (centres undefined),"inconclusive: 31.6 µM [activator, single point]",–
Cc1ccc(-n2c(=O)c3ccc(C(=O)NCc4ccco4)cc3n(Cc3cccc(Cl)c3)c2=O)cc1,"inconclusive: 1 µM [inhibitor, partial curve]",–
CC(C)c1cnc2c(c1SCc1cccc(C(F)(F)F)c1)c(=O)n(C)c(=O)n2C,–,inactive: -0.285%
CN1CCN(c2ncc3nc(-c4ccc(Cl)cc4)c(=O)n(C)c3n2)CC1,"inconclusive: 3.98 µM [activator, partial curve]",–
O=C(CCN1CCN(c2ccccc2)CC1)Nc1ccc(OCc2ccccc2)cc1,"inconclusive: 39.8 µM [inhibitor, single point]",–
Cc1cc2c3c(c1C)C1(C(=O)N3C(C)(C)CC2C)C(C#N)=C(N)Oc2cc(O)ccc21 (centres undefined),–,inactive: 29.3%
CC(=O)c1cccc(S(=O)(=O)N2CCCC(c3nc(-c4ccc(C)o4)no3)C2)c1 (centres undefined),"inconclusive: 31.6 µM [activator, single point]",–
O=C(N/N=C/c1ccc(Br)o1)/C(=C/c1ccc([N+](=O)[O-])cc1)NC(=O)c1ccccc1,"inconclusive: 31.6 µM [inhibitor, single point]",–
CCC(C)(C)n1nnnc1CN1CCN(c2nc3cc(OC)ccc3cc2C#N)CC1,"inconclusive: 39.8 µM [activator, single point]",–
COc1ccc(-n2c(C)cc(/C=C3/SC(=O)N(CC(=O)N4CCOCC4)C3=O)c2C)cc1,"inconclusive: 31.6 µM [activator, single point]",–
Fc1ccc(C2=CCN(C(c3ccc(Cl)cc3)c3nnnn3Cc3ccccc3)CC2)cc1 (centres undefined),"inconclusive: 39.8 µM [inhibitor, single point]",–
COc1ccc(-c2noc(CN3CCN(c4ccccc4OC)CC3)n2)cc1OC,"inconclusive: 31.6 µM [activator, single point]",–
COc1cc(/C=N\NC(=O)CNC(=O)C2COc3ccccc3O2)ccc1O (centres undefined),–,inactive: -1.47%
CCCn1c(=O)c2sccc2n2c(CCCC(=O)Nc3ccc(C)c(F)c3)nnc12,–,inactive: -0.632%
COc1ccc(C)c2sc(N(Cc3cccnc3)C(=O)CCc3ccccc3)nc12,–,inactive: 24%
COc1ccccc1NC(=S)NC(=O)C1CC1,–,inactive: 1.2%
CCc1ccc(-c2nc(NC(=S)NC(=O)c3cccs3)sc2C)cc1,active: 3.98 µM,–
COc1ccc(C(=O)N2CCc3cc(OC)c(OC)cc3C2COc2ccccc2OC)cc1 (centres undefined),"inconclusive: 39.8 µM [activator, single point]",–
CCCCN(CC)C(=O)Nc1ccc2c(c1)N(C)C(=O)c1ccccc1S2,–,inactive: -5.15%
Cc1ccc(NC(=O)COC(=O)c2ccc(OCc3c(C)noc3C)cc2)cc1S(=O)(=O)N1CCOCC1,"inconclusive: 39.8 µM [activator, single point]",–
CCOc1ccc(CCNc2nc3c(-c4ccc(C)cc4)nnn3c3ccccc23)cc1OCC,–,inactive: 9.93%
Cc1ccc(N2C(=O)N(Cc3ccccc3C)c3ccccc3S2(=O)=O)cc1,"inconclusive: 25.1 µM [inhibitor, single point]",–

Compound,Potency,"max response, negative = inhibition"
CCn1nnc(-c2ccccc2NC(=O)c2cc(OC)c(OC)c(OC)c2)n1,"inconclusive: 31.6 µM [activator, single point]",–
COC(=O)c1ccc(-n2c(C)cc(-c3csc(NC(=O)c4ccc(S(=O)(=O)N(C)C)cc4)n3)c2C)cc1,active: 3.98 µM,–
C/C(=N\N=C\c1ccccc1F)c1nnn(-c2nonc2N)c1C,"inconclusive: 39.8 µM [inhibitor, single point]",–
Cc1cc(C)nc(NC(=NCCc2c[nH]c3ccccc23)NC(=O)c2ccco2)n1,"inconclusive: 39.8 µM [activator, single point]",–
Cc1ccc(-c2cc(C(=O)N(Cc3ccccc3)Cc3ccco3)no2)cc1F,–,inactive: 2.81%
Cc1ccccc1-c1ccc(C(=O)NCc2ccccc2)o1,–,inactive: 8.08%
Cc1ccc(Nc2nc(Oc3ccc(OCc4ccccc4)nn3)nc(N3CCOCC3)n2)cc1,"inconclusive: 15.8 µM [activator, partial curve]",–
C[C@@]1(CO)[C@H](O)CC[C@]2(C)[C@@H]1CC[C@H]1C[C@H]3C[C@]12CC[C@]3(O)COC(=O)CN,–,inactive: -11.6%
O=C(NCc1ccco1)c1ccc(S(=O)(=O)c2cccc(S(=O)(=O)N3CCOCC3)c2)cc1,"inconclusive: 39.8 µM [activator, single point]",–
OCC(O)C(O)C(O)C(O)C(O)CO (centres undefined),–,inactive: 1.58%
O=C1Cc2ccccc2C(=O)N1CCc1ccccc1,"inconclusive: 31.6 µM [inhibitor, single point]",–
Cc1cccc(NC(=O)CN(C)S(=O)(=O)c2ccc3c(c2)c(=O)n(C)c(=O)n3C)c1,–,inactive: -2.77%
N#CCCn1c(=O)c(-c2cccs2)nc2cnc(OCc3ccccc3)nc21,–,inactive: 1.29%
COc1ccccc1NC(=O)C1=C(C)NC(SCC(=O)c2ccc(C)cc2)=C(C#N)C1c1ccco1 (centres undefined),active: 12.6 µM,–
Cc1c(NC(=O)c2cc3nc(-c4ccc(Cl)cc4)cc(C(F)(F)F)n3n2)c(=O)n(-c2ccccc2)n1C,"inconclusive: 39.8 µM [activator, single point]",–
Cc1ccc(O)c(C(=O)c2cc(C(=O)NCc3ccccc3)c(=O)n(Cc3ccccc3)c2)c1,"inconclusive: 39.8 µM [inhibitor, single point]",–
Cc1ccc(S(=O)(=O)c2c(Nc3cccc(Cl)c3)sc(C(=O)c3ccc4c(c3)OCO4)c2N)cc1,"inconclusive: 3.16 µM [inhibitor, partial curve]",–
O=C(NCc1ccccc1Cl)c1ccc(NC(=O)N2CCCCc3ccccc32)cc1,–,inactive: -0.107%
COc1ccc(C(CC(=O)NCc2ccc(Cl)cc2)N2Cc3ccccc3C2=O)cc1OC (centres undefined),"inconclusive: 39.8 µM [activator, single point]",–
ClCCCl,–,inactive: 9.15%
COC(=O)c1sc(-c2ccccc2)cc1NC(=O)Nc1ccc(F)cc1,"inconclusive: 39.8 µM [inhibitor, single point]",–
O=C(COc1ccc(/C=N/NC(=O)c2cc3ccccc3o2)cc1Br)Nc1ccccc1,active: 10 µM,–

Compound,Potency,"max response, negative = inhibition"
COc1ccc(Cc2nn3c(-c4cc(OC)c(OC)c(OC)c4)nnc3s2)cc1,"inconclusive: 39.8 µM [activator, single point]",–
CCOC(=O)c1cc(NC(=O)c2ccccc2)c(=O)oc1-c1ccccc1,–,inactive: 5.68%
Cc1ccc(C2CC(=O)C=C(Nc3ccc(Cl)cc3)C2)cc1 (centres undefined),"inconclusive: 25.1 µM [inhibitor, single point]",–
CCOc1ccccc1-c1nc(Cn2c(=O)cc(C)c3c(C)nn(-c4ccccc4)c32)c(C)o1,–,inactive: -2.35%
O=C(CSc1nc(-c2ccccc2F)nc2cc(=O)[nH]n12)Nc1cccc(C(F)(F)F)c1,"inconclusive: 3.98 µM [activator, single point]",–
CCCn1c(C)cc(-c2csc(N)n2)c1C,"inconclusive: 25.1 µM [inhibitor, single point]",–
CN(C)S(=O)(=O)c1ccc(C(=O)N2CCC(c3nc4ccccc4o3)CC2)cc1,"inconclusive: 25.1 µM [activator, single point]",–
CCCC(=O)N1CCc2cc(OC)c(OC)cc2C1COc1ccc(C(=O)OC)cc1 (centres undefined),"inconclusive: 39.8 µM [activator, single point]",–
O=C(COC(=O)/C=C/C(=O)OCC(=O)NC12CC3CC(CC(C3)C1)C2)NC12CC3CC(CC(C3)C1)C2,"inconclusive: 31.6 µM [activator, single point]",–
O=c1[nH]c(C(Cl)Cl)nc2sc3c(c12)CCN(Cc1ccccc1)C3,"inconclusive: 31.6 µM [inhibitor, single point]",–
Cc1ccc(/C=C(\C#N)C(=O)Nc2cccc(Cl)c2)o1,active: 10 µM,–
COc1ccc(CCNC(=O)C2CCN(Cc3nc(-c4ccc(OC)c(OC)c4)oc3C)CC2)cc1OC,–,inactive: -12.9%
CCCC[C@@H](NC(=O)[C@@H](Cc1cn(C(=O)OC)c2ccccc12)NC(=O)[C@H](CC(C)(C)C)NC(=O)N1[C@H](C)CCC[C@@H]1C)C(=O)O,"inconclusive: 3.55 µM [activator, partial curve]",–
Cn1c(=O)c2c(-c3ccc(Br)cc3)n(Cc3ccc(F)cc3)cc2n(C)c1=O,"inconclusive: 39.8 µM [activator, single point]",–
O=C(O)c1c(-c2ccccc2)oc2ccc(OCc3c(F)cccc3Cl)cc12,"inconclusive: 39.8 µM [inhibitor, single point]",–
CCCOc1ccc(C(=O)Nc2ccc(N3CCN(C(C)=O)CC3)cc2)cc1,"inconclusive: 39.8 µM [activator, single point]",–
O=C(CSc1nccn1-c1cccc(Cl)c1)Nc1cccc2ccccc12,–,inactive: 5.11%
O=C(/C(=C/c1ccccc1)n1cncn1)c1ccc(Cl)cc1Cl,"inconclusive: 39.8 µM [activator, single point]",–
Cc1nn(CCC(N)=S)c2nc(-c3cccs3)cc(C(F)(F)F)c12,"inconclusive: 39.8 µM [activator, single point]",–
CCN(CC)c1nc2ccccc2nc1C(C#N)C(=O)NCCc1ccccc1 (centres undefined),"inconclusive: 31.6 µM [activator, single point]",–

# — PubChem BioAssay AID1476 (National Center for Advancing Translational Sciences (NCATS), 2009)
